Among all 320,000 compounds or so, about 9,100 (2.8%) were called active. Inconclusive means that the source gave no clear call. Such entries were picked first, then a sample of the others. Calls follow the shape of the dose curve; as a rule, active = well fitted activation curve with a large enough effect; inconclusive = small, poorly fitted or top-dose-only effect; inactive = no such curve, though single readings can be large or run the other way. No potency is given beside an inconclusive call; the fits are too rough.
Assay: qHTS Assay for Rab9 Promoter Activators; also: nearly all actives have a fitted effect of over 60% in size
Settings: Huh7 Rab9 promoter-luciferase reporter, luminescence, 24 h; series mostly up to 9.22 µM
Method in brief: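 Rab9 promoter-driven luciferase in stably transfected Huh7 cells; 1500 cells/well rested 2 h, exposed to compound in DMSO for 24 h at 37 °C, 5% CO2. Luminescence read 10 min after adding luciferase reagent at ambient temperature.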
Potency is read from the fitted curve at half-maximal effect; tags tell the direction and shape of the fitted curve.

Row | Structure (SMILES) | Potency
1 | N/C(=N\OC(=O)COc1ccc2ccccc2c1Br)c1ccccn1 | inconclusive [activator, partial curve]
2 | CCOC(=O)c1ccc(NC(=S)N2CCCC2)cc1 | inconclusive [activator, partial curve]
3 | COCCN(C(=O)COC(=O)Cc1coc2cc3c(cc12)CCC3)c1c(N)n(Cc2ccccc2)c(=O)[nH]c1=O | inactive
4 | c1ccc(-c2csc(N3CCOCC3)n2)cc1 | inconclusive [activator, single point]
5 | Nc1cc(C(=O)OCC(=O)N2CCOCC2)ccc1Cl | inconclusive [activator, partial curve]
6 | Clc1ccc2oc(-c3ccccc3)cc(=NCCCN3CCOCC3)c2c1 | inconclusive [activator, single point]
7 | COc1ccc(C(CC(=O)c2ccccc2)S(=O)(=O)c2ccccc2)cc1 (stereo not drawn) | inconclusive [activator, partial curve]
8 | Cc1ccc2nc(-c3ccc(NS(=O)(=O)c4ccc(F)cc4)cc3)sc2c1 | inconclusive [activator, single point]
9 | N=C1C(c2nc3ccccc3s2)=C(O)CN1Cc1ccco1 | inconclusive [activator, partial curve]
10 | CCCCCc1nc2c(=O)n(C)c3ccccc3c2o1 | inconclusive [activator, single point]
11 | O=C(NCCc1nnc2ccccn12)c1cccs1 | inconclusive [activator, partial curve]
12 | CN=c1scc(C)n1/N=C/c1cc(Br)c(O)c(Br)c1 | inactive
13 | COc1ccc(C(=O)OCC(=O)c2ccc[nH]2)cc1 | inconclusive [activator, single point]
14 | CCCCc1nc2cc(C(=O)N3CCN(c4nc(C)cnc4C)CC3)ccc2o1 | inconclusive [activator, single point]
15 | O=C(Nc1nccs1)c1ccc(-c2cccc([N+](=O)[O-])c2)o1 | inconclusive [activator, partial curve]
16 | Cc1sc(NC(=O)c2ccco2)nc1-c1ccccc1 | active: 1.58 µM
17 | CCc1nonc1NC(=O)c1oc2ccccc2c1C | inconclusive [activator, single point]
18 | CCc1ccc(C(=O)NCc2cccs2)s1 | inconclusive [activator, partial curve]
19 | CS(=O)(=O)N1CCN(c2nc3ccc(Cl)cc3s2)CC1 | inconclusive [activator, full curve]
20 | CN1Cc2ccccc2N(CC(=O)NCc2ccccc2)C1=O | inactive
21 | COCCNC(=O)c1cc(-c2ccccc2OC)on1 | inconclusive [activator, partial curve]
22 | C[C@H]1CCC(=O)N(CCSc2ccc(Br)cc2)CC1 | inconclusive [activator, single point]
23 | COC(=O)c1c(NC(=O)Cc2cccs2)sc2c1CCC(C)C2 (stereo not drawn) | inconclusive [activator, single point]
24 | O=C(Cc1csc(NC(=O)Nc2cccc(Cl)c2)n1)NCc1cccnc1 | inactive
25 | CCc1ccc(NC(=O)NCc2ccccn2)cc1 | inconclusive [activator, partial curve]
26 | Cc1ccc(C2=NN3C(C(=O)c4ccccc4)Oc4ccccc4C3C2)cc1 (stereo not drawn) | inconclusive [activator, single point]

Row | Structure (SMILES) | Potency
27 | CCCCN1C(=O)/C(=C/C=C2/CC(C)(C)CN2C)SC1=S | inconclusive [activator, single point]
28 | Cc1c(N=C2N=C(NC(=O)c3ccc(F)cc3)c3ccccc32)c(=O)n(-c2ccccc2)n1C | inactive
29 | CN(CC(=O)NCc1cccnc1)S(=O)(=O)c1ccc(F)cc1 | inactive
30 | O=C(Nc1cccc(Cl)c1)c1cnc[nH]1 | active: 4.47 µM
31 | Cc1ccc(-n2ncc3c(NCCCn4ccnc4)ncnc32)c(C)c1 | inactive
32 | O=C(Nc1ccc(-c2nc3cc(Cl)ccc3o2)cc1)C1CCCO1 (stereo not drawn) | active: 0.501 µM
33 | Cc1cc(C)nc(N/N=C/C(Cl)=C/c2ccccc2)n1 | inconclusive [activator, single point]
34 | COc1cccc(C(=O)/C=C2\Sc3ccccc3N2C)c1 | active: 0.891 µM
35 | CC(=O)Oc1c(/C=C(\C#N)C(N)=O)[nH]c2ccccc12 | inactive
36 | Cc1cc(-c2ccccc2)n(-c2ccccc2)n1 | inconclusive [activator, single point]
37 | O=C(CCNC(=O)c1ccccc1Cl)NCCC1=CCCCC1 | inactive
38 | CC(=O)c1cccc(OCC(=O)Nc2cc(Cl)ccc2-n2cncn2)c1 | inconclusive [activator, single point]
39 | CC(=O)NCCc1nc2cc(NC(=O)c3ccccc3Cl)ccc2n1C | inconclusive [activator, partial curve]
40 | Cc1cccc(N=Nc2c(O)[nH]c3ccc(F)cc23)c1 | inconclusive [activator, single point]
41 | Clc1ccc(CSc2nnc3ccccn23)c(Cl)c1 | inconclusive [activator, single point]
42 | Cc1cc(Cl)nc(-c2ccccc2)n1 | inactive
43 | COc1cc(-c2[nH]ncc2CN2CCN(c3cccc(C)n3)CC2)cc(OC)c1OC | inactive
44 | Cc1cc(N)ccc1N=Nc1c(C)n(C)n(-c2ccccc2)c1=O | inconclusive [activator, single point]
45 | COc1ccc(C(=O)Nc2ccccc2C(=O)N2CCCCCC2)cc1 | inactive
46 | Nc1ncnc(NCc2ccc(F)cc2)c1[N+](=O)[O-] | inactive
47 | O=C1CCC(O)CCN1CCSc1ccccc1 (stereo not drawn) | inconclusive [activator, partial curve]
48 | COC(=O)c1c(NC(=O)CN2CCCc3ccccc32)sc(C)c1C | inactive
49 | CCOC(=O)c1c(Cc2ccc(Cl)cc2)c[nH]c1C | inconclusive [activator, partial curve]
50 | C/C(=N\NC(=O)c1cc(C)oc1C)c1ccc2c(c1)OCO2 | inconclusive [activator, partial curve]
51 | COc1ccc(NC(=O)c2ccccc2NC(=O)CSc2ccc(Cl)cc2)cc1 | inconclusive [activator, partial curve]
52 | Cn1c(NCc2ccc(Cl)cc2)nc2ccccc21 | active: 3.55 µM

Row | Structure (SMILES) | Potency
53 | O=C(NNC(=S)Nc1ccc(F)cc1F)c1ccco1 | inconclusive [activator, partial curve]
54 | Cc1ccc(NC2Sc3ccccc3NC2=O)cc1 (stereo not drawn) | active: 1.41 µM
55 | COc1ccccc1NC(=O)c1ccc(-c2ccccc2[N+](=O)[O-])o1 | inconclusive [activator, single point]
56 | Cc1ccc(Nc2nc(Cl)nc(NC3CCCCC3)n2)cc1 | inconclusive [activator, single point]
57 | C/C(=N\NC(=O)c1ccc(COc2ccccc2)cc1)c1ccncc1 | inconclusive [activator, single point]
58 | CCc1ccc(NC(=O)CSc2ccccn2)cc1 | inconclusive [activator, partial curve]
59 | CCOC(=O)c1[nH]c2ccc(C)cc2c1N | active: 2.51 µM
60 | Cc1cccn2cc(-c3ccc(Cl)cc3)nc12 | active: 1.26 µM
61 | Cn1cccc1/C=C1\SC(=Nc2ccc(O)cc2)NC1=O | inactive
62 | COc1ccc(NC(=O)CSc2nccn2Cc2ccccc2)cc1 | inconclusive [activator, single point]
63 | O=C(CNC(=O)c1ccc(Cl)c([N+](=O)[O-])c1)OCN1C(=O)c2ccccc2C1=O | inactive
64 | CN(C)c1cccc(C(=O)NN2C(=O)NC3(CCCCC3)C2=O)c1 | inconclusive [activator, partial curve, poor fit]
65 | COc1ccc(C(=O)Nc2cccc(OC(=O)c3ccco3)c2)cc1 | inconclusive [activator, single point]
66 | CC(C)Cn1c(N)c(C(=O)COC(=O)C2Cc3ccccc3CN2S(C)(=O)=O)c(=O)n(C)c1=O (stereo not drawn) | inactive
67 | Cc1cnc(NC(=O)/C=C/c2ccc(Br)o2)s1 | inconclusive [activator, partial curve]
68 | CN(C)S(=O)(=O)c1ccc(C(=O)Nc2ccc3c(c2)CCC3)cc1 | inconclusive [activator, single point]
69 | COc1ccccc1NC(=O)CSc1nnnn1-c1ccccc1F | inactive
70 | COc1ccc2cc(C(=O)CS(=O)(=O)c3ccccc3)c(=O)oc2c1 | inactive
71 | CC(C)(C)C1CCc2c(sc(NC(=O)c3ccncc3)c2C(N)=O)C1 (stereo not drawn) | inactive
72 | c1ccc2c(CN3CCSCC3)cccc2c1 | inactive
73 | C=CCn1c(SCC(=O)Nc2cc(C)on2)nc2sc(C)c(C)c2c1=O | inactive
74 | O=C(Cn1ncc(N2CCCC2)c(Br)c1=O)c1ccc(Cl)cc1 | active: 1.41 µM
75 | CCOC(=O)C1CCCN(C(=O)CNC(=O)c2nn(-c3ccc(OC)c(Cl)c3)c(=O)c3ccccc23)C1 (stereo not drawn) | inactive
76 | CC1C/C(=C\c2cccnc2)C(=O)/C(=C/c2cccnc2)C1 (stereo not drawn) | inactive
77 | CN(C)c1ccc(-c2nnn(Cc3ccccc3Br)n2)cc1 | inconclusive [activator, single point]
78 | COc1ccc(C(=O)O/N=C(\N)c2cccc(C)c2)cc1OC | inconclusive [activator, partial curve]

— PubChem BioAssay AID485297 (National Center for Advancing Translational Sciences (NCATS), 2010)
